From PubChem BioAssay AID1745853 (National Center for Advancing Translational Sciences (NCATS), 2022)
Several values for one entry are separate records, joined by “and”; a condition that tells them apart may be missing. Identical values can stand only once. The list shows a part of the results. Further columns of the screen follow, without active or inactive calls.

Columns and labels:
Assay in all cases: Primary Screen for Target Class Profiling of Small Molecule Inhibitors of Methyltransferases
[1] = biological target: Glycine N-methyltransferase (Homo sapiens) (UniProt Q14749); conditions: purified enzyme, MTase-Glo SAH luminescence; measured here: GNMT inhibition; at 40 µM; stronger effect = lower value
Summary of the method: (§1)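 Each enzyme was reacted with SAM and its substrate, with compounds tested once at 40 uM; SAH formed was read by MTase-Glo luminescence.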

[2] = biological target: Guanidinoacetate N-methyltransferase (Homo sapiens) (UniProt Q14353); conditions: purified enzyme, MTase-Glo SAH luminescence; measured here: GAMT inhibition; at 40 µM; stronger effect = lower value
Summary of the method: as §1

[3] = biological target: Histamine N-methyltransferase (Homo sapiens) (UniProt P50135); conditions: purified enzyme, MTase-Glo SAH luminescence; measured here: HNMT inhibition; at 40 µM; stronger effect = lower value
Summary of the method: as §1

[4] = biological target: Nicotinamide N-methyltransferase (Homo sapiens) (UniProt P40261); conditions: purified enzyme, MTase-Glo SAH luminescence; measured here: NNMT inhibition; at 40 µM; stronger effect = lower value
Summary of the method: as §1

[5] = biological target: Phenylethanolamine N-methyltransferase (Homo sapiens) (UniProt P11086); conditions: purified enzyme, MTase-Glo SAH luminescence; measured here: PNMT inhibition; at 40 µM; stronger effect = lower value
Summary of the method: as §1
On the % scale 0 is the no-effect control and ±100 the full control effect.

SMILES	activity change, negative = inhibition [1]	activity change, negative = inhibition [2]	activity change, negative = inhibition [3]	activity change, negative = inhibition [4]	activity change, negative = inhibition [5]
C[C@@H]1C(=O)OC[C@H]2C(C(=O)O)=C[C@@H]3CC(C)(C)C[C@]312	-4.18%	0.245%	11.2%	-15.1%	-10.4%
COCCCN1C(=O)c2cc(-c3ccccc3)nn2CC1(C)C(=O)NCc1ccccc1 (stereo not given)	5.54%	1.38%	4.72%	7.12%	0.24%
COc1ccc(-c2cc3n(n2)CC(C)(C(=O)NCc2ccccc2OC)N(c2cccc(C)c2C)C3=O)cc1 (stereo not given)	3.08%	4.29%	-0.072%	-0.182%	-0.934%
COc1ccc(-c2cc3n(n2)CC(C)(C(=O)NC2CCCCC2)N(CCc2ccccc2)C3=O)cc1 (stereo not given)	-3.82%	0.433%	-8.18%	-4.53%	-8.14%
Cc1c[nH]c2nccc(Oc3c(F)cc(Nc4cc(Cl)nc(N)n4)cc3F)c12	-22.9%	-9.08%	-70.1%	-49%	-9.23%
CC1CCC(NC(=O)C2(C)Cc3ccccc3C(=O)N2CCc2ccc(Cl)cc2)CC1 (stereo not given)	-4.98%	5.03%	4.25%	-2.4%	2.74%
CCCCCC[C@@H]([C@@H](C)O)n1cnc2c(N)ncnc21	3.55%	11.3%	7.59%	-6.06%	5.72%
COc1cccc(Cn2nc3n(Cc4ccc(F)cc4)c(=O)c4ccccc4n3c2=O)c1	4.99%	0%	9.83%	-0.473%	5.25%
CCCn1c(=O)c2ccccc2n2c(SCC(=O)Nc3cc(F)ccc3F)nnc12	0.681%	0.031%	5.6%	-1.38%	1.99%
Fc1ccc2c(c1)c1c3n2CCNC3CCC1 (stereo not given)	0.53%	5.5%	2.52%	11.1%	-1.75%
CCCC1c2ccc(C)n2CCN1C(=O)Nc1ccc(F)cc1F (stereo not given)	-15.8%	-2.29%	-3.77%	0.113%	-10.7%
Cc1ccc2n1CCN(C(=O)Nc1ccccc1F)C2C(C)C (stereo not given)	-0.897%	1.53%	-7.73%	-12.9%	-5.47%
Cc1ccc(CNC(=O)C2(C)Cn3nc(C(=O)NC4CCCC4)cc3C(=O)N2C)cc1 (stereo not given)	2.76%	0%	-0.577%	7.94%	3.23%
Cc1ccc(CN2CCC(CNC(=O)NC(C)C)C2)cc1C (stereo not given)	-1.54%	1.99%	-0.39%	-0.953%	-0.43%
N#Cc1ccc(CN2C[C@@H](CO)[C@H](NC(=O)c3ccccc3)C2)cc1	-0.235%	-1.4%	-0.013%	1.48%	-4.71%
CCCCCCCCc1ccc(-c2ccc(C(=O)O)cc2)cc1	2.41%	12.5%	3.57%	-7.13%	9.77%

SMILES	activity change, negative = inhibition [1]	activity change, negative = inhibition [2]	activity change, negative = inhibition [3]	activity change, negative = inhibition [4]	activity change, negative = inhibition [5]
O=S(=O)(NCC1CN(CC2CC2)CC12CCCCC2)c1cccs1 (stereo not given)	-6.12%	-2.53%	-18%	-10.2%	-4.92%
OC[C@H]1O[C@@H](n2cnc3c(NCc4ccc(O)cc4)ncnc32)[C@H](O)[C@@H]1O	9.57%	16%	4.99%	-0.16%	2.82%
CC(C)NC(=O)CCn1ccc2cc(S(=O)(=O)N3CCCCC3)ccc21	3.18%	0%	2.58%	7.88%	3.94%
CCOc1ccc(CNC(=O)CCCn2ccc3cc(S(=O)(=O)N4CCCC4)ccc32)cc1	4.09%	0.303%	3.85%	3.53%	3.23%
CC(C)NC(=O)c1ccc2c(=O)n(Cc3ccccc3)c3nn(Cc4ccccc4Cl)c(=O)n3c2c1	4.05%	0.073%	0.238%	2.75%	2.1%
C=C(C)Cn1c(SCC(=O)c2cccs2)nc2sc3c(c2c1=O)CCCC3	-5.97%	-13.1%	5.74%	-32.3%	-4.91%
CN(CCN1C(=O)c2cc3sccc3n2CC1(C)C(=O)NC1CCCCC1)C1CCCCC1 (stereo not given)	5.83%	1.5%	5.48%	11.2%	2%
CCCn1c(=O)c2ccc(C(=O)NC3CCCC3)cc2n2c(=O)n(Cc3ccccc3C)nc12	2.77%	1.11%	14.4%	-2.72%	-5.87%
C[N+](C)(C)CCCCCC[N+](C)(C)C	-0.858% and -2.52%	5.07% and 1.25%	2.17% and -0.227%	-7.23% and -8.06%	0.919% and -1%
CC1=CCC2C(C)(CO)CCCC2(C)C1CC12OC1C(O)C(CO)=CC2O (stereo not given)	0%	-2.74%	-6.4%	-12.6%	-0.091%
O=c1ccc2ccc(OCCCCN3CCN(c4cccc5sccc45)CC3)cc2[nH]1	-5.38%	-1.58%	-4.97%	-48.7%	-15.5%
CCC1=C(C)C(=O)C(C)CC12C(=O)CCC2C(=O)O (stereo not given)	-0.095%	-2.63%	0.856%	-14.6%	3.18%
CC1(C(=O)NCc2ccccc2)Cn2c(cc3ccccc32)C(=O)N1Cc1ccccc1 (stereo not given)	1.76%	2.28%	3.13%	-2.92%	0.419%
CNC(=O)c1cc(C2CC2)nc2onc(C3CCCN3C(=O)NC(C)c3ccccc3)c12 (stereo not given)	-4.43%	1.43%	-1.57%	-2.22%	-2.65%
COc1ccccc1Oc1ccc(N(Cc2cccnc2)S(=O)(=O)CC(F)(F)F)cc1	-0.265%	3.86%	6.9%	-22.3%	-6.8%
